According to PubChem BioAssay AID1346428 (National Center for Advancing Translational Sciences (NCATS), 2018):
Screen size: about 48,000 compounds; about 1,200 (2.5%) were called active. Another 2% or so got no clear call; they are omitted.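 Rule for the calls: active = activation of at least 60% and not above a set upper limit (about 1 call in 100 departs from these limits); inconclusive = activation of 40% to 60%, or above that upper limit; inactive = activation under 40%.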 The list shows a part of the results.

molecular target: Probable G-protein coupled receptor 32 (Homo sapiens) (UniProt O75388); experiment: qHTS for Agonists of Human Resolvin D1 Receptor DRV1; conditions: CHO-K1 GPR32 beta-arrestin PathHunter luminescence, 90 min; at 76.9 µM; stronger effect = higher value; zero percent set by DMSO-only wells; note: 0% is about no effect
Method in brief: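 Agonism was scored as beta-arrestin recruitment to ProLink-fused GPR32 in stably transfected CHO-K1 cells, giving a chemiluminescent beta-Gal signal; compounds were incubated 90 min at 37 °C.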

Sequence of UniProt O75388 (O75388 whole entry, looked up, the tested form may be a part): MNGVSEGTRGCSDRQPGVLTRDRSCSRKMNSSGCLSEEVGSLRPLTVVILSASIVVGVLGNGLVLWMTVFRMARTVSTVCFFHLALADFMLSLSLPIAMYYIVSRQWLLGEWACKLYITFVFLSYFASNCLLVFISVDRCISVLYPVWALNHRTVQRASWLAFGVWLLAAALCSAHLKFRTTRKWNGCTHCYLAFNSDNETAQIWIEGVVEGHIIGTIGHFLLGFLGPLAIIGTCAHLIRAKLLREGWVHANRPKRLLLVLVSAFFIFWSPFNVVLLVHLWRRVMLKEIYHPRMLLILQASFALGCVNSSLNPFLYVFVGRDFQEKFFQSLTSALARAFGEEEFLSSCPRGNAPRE

activation, inactive:
CCn1c(CN2CCOCC2)nc2cc(NC(=O)c3cc(OC)c(OC)c(OC)c3)ccc21 -19%
NCCCC(O)(P(=O)(O)O)P(=O)(O)O 5.74%
CC(=O)c1ccc(NC(=O)C2CCC(CNS(=O)(=O)c3ccc4c(c3)CCCC(=O)N4)CC2)cc1 (centres undefined) 8.98%
COc1ccccc1N1CCN(C(=O)Cc2c(C(=O)O)c(C)cn2C)CC1 -5.22%
COc1ccc(-c2cc(C(=O)NCc3ccccc3)c3c(-c4ccccc4)[nH]nc3n2)cc1 1.75%
CC1CCN(C(=O)Cn2ncc3c4ccccc4n(Cc4ccc(Cl)cc4)c3c2=O)CC1 -12.8%
CC(=O)c1ccc(NC(=O)c2cc(-c3ccc(Cl)c(Cl)c3)on2)cc1 9.47%
CCc1ccccc1NC(=O)C1CCCN(c2nnc(-n3c(C)ccc3C)s2)C1 (centres undefined) -22%
Cc1ccc2nc(N3CCN(c4cccc(C)c4C)CC3)c3nnnn3c2c1 -16.8%
COc1ccccc1CNC(=O)c1cccc(Nc2nc3ccccc3n3nnnc23)c1 -8.33%
CCC1CN(C(=O)N2CCC(C(=O)NCc3cccs3)CC2)c2cc(C)ccc2O1 (centres undefined) -6.04%
Cc1ccccc1Nc1c2c(nc3nncn13)CCC2 -7.05%
O=C(CC1(O)C(=O)N(CCc2ccccc2)c2ccc(Br)cc21)c1ccccc1O (centres undefined) -44.7%
CCOc1ccc(-c2cc(C(=O)NCc3ccccc3)c3c(-c4ccc(CC)cc4)[nH]nc3n2)cc1 -17.9%
O=C(COc1ccc(F)cc1)Nc1ccc2nc(SCc3ccccc3)sc2c1 0.107%
CCc1cccc(NC(=O)CSc2ncc3c(n2)-c2ccccc2N(Cc2ccccc2C)S3(=O)=O)c1 -3.83%
CC(C)(C)C(=O)Nc1c(C(=O)N2CCN(c3ccc(F)cc3)CC2)oc2ccccc12 -0.0327%
COc1ccc(NC(=O)Cc2csc(C)n2)cc1 -5.89%
CC(=O)c1ccc(NC(=O)NCCc2c[nH]c3ccccc23)cc1 2.28%
Oc1ccc(CCNCCCCCCNCCc2ccccc2)cc1O -3.84%
CC(C)c1nn2c(=O)cc(COC(=O)c3ccc(NC(=O)CCc4ccccc4)cc3)nc2s1 -10.9%
Cc1cccc(NC(=O)CSc2nnc(CNC(=O)c3c(F)cccc3Cl)o2)c1C -2.17%
CCOC(=O)C1CCN(S(=O)(=O)c2cc(-c3cc(C)no3)ccc2C)CC1 -16.4%
Cc1cccc(-c2nc3scc(CCNC(=O)c4ccccc4Cl)n3n2)c1 -21.1%
